Results from the supplement of paper PMC4604168 (melanoma cell lines).
This is one part of the list. Many values rest on one well or one pass, so single values are uncertain.

What follows are molecules tested on A375 (assay: cell count relative to DMSO control; melanoma cells; higher = more viable cells). Details: library dose: low library concentration; 72 h.
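Also: cell number obtained by counting DAPI-stained nuclei in high-throughput microscope images with image analysis software, screen run in 1,536-well plates.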

Compound | cell count [%]
Cc1cc(N2CCOCC2)cc2[nH]c(-c3c(NC[C@@H](O)c4cccc(Cl)c4)cc[nH]c3=O)nc12 + NCC(=O)Nc1ccc(-n2nc(C(F)(F)F)cc2-c2ccc3c(ccc4ccccc43)c2)cc1 [OSU03012] (first compound 0.2 µM, partner dose 1 µM) | 11.6
O=C(O)c1ccc2c(c1)nc(Nc1cccc(Cl)c1)c1ccncc12 + CO[C@@H]1[C@H](N(C)C(=O)c2ccccc2)C[C@H]2O[C@]1(C)n1c3ccccc3c3c4c(c5c6ccccc6n2c5c31)C(=O)NC4 [Midostaurin] (first compound 0.4 µM, partner dose 0.08 µM) | 86.8
O=C(Nc1cc(C(F)(F)F)cc(C(F)(F)F)c1)c1cc(Cl)ccc1O + NCC(=O)Nc1ccc(-n2nc(C(F)(F)F)cc2-c2ccc3c(ccc4ccccc43)c2)cc1 [OSU03012] (first compound 0.016 µM, partner dose 1 µM) | 10.8
O=C(Nc1cc(C(F)(F)F)cc(C(F)(F)F)c1)c1cc(Cl)ccc1O + OCc1c[nH]c2ccccc12 [Indole-3-carbinol] (first compound 0.016 µM, partner dose 0.8 µM) | 73.7
O=C(O)c1ccc2c(c1)nc(Nc1cccc(Cl)c1)c1ccncc12 + Cc1cc(N2CCOCC2)cc2[nH]c(-c3c(NC[C@@H](O)c4cccc(Cl)c4)cc[nH]c3=O)nc12 [BMS536924] (first compound 0.4 µM, partner dose 0.2 µM) | 75.2
O=C(O)[C@@H]1[O][Sb](=[O])([O][Sb]2(=[O])[O][C@H]([C@H](O)CO)[C@H](O)[C@H](C(=O)O)[O]2)[O][C@H]([C@H](O)CO)[C@@H]1O (stereo partly drawn) [stibogluconate] + CC(C)(C)c1cnc(CSc2cnc(NC(=O)C3CCNCC3)s2)o1 [SNS-032] (first compound 2 µM, partner dose 0.01 µM) | 84
O=C(Nc1cc(C(F)(F)F)cc(C(F)(F)F)c1)c1cc(Cl)ccc1O + COc1cc(Nc2ncc(F)c(Nc3ccc4c(n3)NC(=O)C(C)(C)O4)n2)cc(OC)c1OC [Tamatinib] (first compound 0.016 µM, partner dose 0.4 µM) | 91
O=C(O)[C@@H]1[O][Sb](=[O])([O][Sb]2(=[O])[O][C@H]([C@H](O)CO)[C@H](O)[C@H](C(=O)O)[O]2)[O][C@H]([C@H](O)CO)[C@@H]1O (stereo partly drawn) [stibogluconate] + Cc1nc(Nc2ncc(C(=O)Nc3c(C)cccc3Cl)s2)cc(N2CCN(CCO)CC2)n1 [dasatanib] (first compound 2 µM, partner dose 0.004 µM) | 83.1
O=C(O)c1ccc2c(c1)nc(Nc1cccc(Cl)c1)c1ccncc12 + CN(NC(=O)CC(=O)NN(C)C(=S)c1ccccc1)C(=S)c1ccccc1 [STA4783] (first compound 0.4 µM, partner dose 0.006 µM) | 46.8
O=C(Nc1cc(C(F)(F)F)cc(C(F)(F)F)c1)c1cc(Cl)ccc1O + O=c1[nH]nc(Sc2ncc([N+](=O)[O-])s2)n1-c1ccc2c(c1)OCCO2 [BI78D3] (first compound 0.016 µM, partner dose 0.2 µM) | 95.5
O=C(Nc1cc(C(F)(F)F)cc(C(F)(F)F)c1)c1cc(Cl)ccc1O + O=C(CCCCCCC(=O)Nc1ccccc1)NO [vorinostat] (first compound 0.016 µM, partner dose 0.08 µM) | 142
O=C(O)[C@@H]1[O][Sb](=[O])([O][Sb]2(=[O])[O][C@H]([C@H](O)CO)[C@H](O)[C@H](C(=O)O)[O]2)[O][C@H]([C@H](O)CO)[C@@H]1O (stereo partly drawn) [stibogluconate] + Cc1ccc(NC(=O)c2cccc(N(C)C)c2)cc1NC(=O)c1ccc(O)cc1 [ZM336372] (first compound 2 µM, partner dose 2 µM) | 94.2
O=C(O)[C@@H]1[O][Sb](=[O])([O][Sb]2(=[O])[O][C@H]([C@H](O)CO)[C@H](O)[C@H](C(=O)O)[O]2)[O][C@H]([C@H](O)CO)[C@@H]1O (stereo partly drawn) [stibogluconate] + CN(C)S(=O)(=O)c1ccc2c(c1)/C(=C/c1cc3c([nH]1)CCCC3)C(=O)N2 [SU6656] (first compound 2 µM, partner dose 0.4 µM) | 111
O=C(Nc1cc(C(F)(F)F)cc(C(F)(F)F)c1)c1cc(Cl)ccc1O + Cc1ccc(Nc2nccc(N(C)c3ccc4c(C)n(C)nc4c3)n2)cc1S(N)(=O)=O [Pazopanib] (first compound 0.016 µM, partner dose 0.4 µM) | 88
O=C(Nc1cc(C(F)(F)F)cc(C(F)(F)F)c1)c1cc(Cl)ccc1O + O=C(O)c1ccc(-c2c[nH]c3ncc(-c4ccccc4)cc23)cc1C1CCCC1 [GSK650394] (first compound 0.016 µM, partner dose 0.16 µM) | 90.4
O=C(O)c1ccc2c(c1)nc(Nc1cccc(Cl)c1)c1ccncc12 + C[C@@H]1CCN(C(=O)CC#N)C[C@@H]1N(C)c1ncnc2[nH]ccc12 [CP690550] (first compound 0.4 µM, partner dose 1 µM) | 96.4
O=C(Nc1cc(C(F)(F)F)cc(C(F)(F)F)c1)c1cc(Cl)ccc1O + C[C@@H]1CCN(C(=O)CC#N)C[C@@H]1N(C)c1ncnc2[nH]ccc12 [CP690550] (first compound 0.016 µM, partner dose 1 µM) | 99.3
O=C(O)[C@@H]1[O][Sb](=[O])([O][Sb]2(=[O])[O][C@H]([C@H](O)CO)[C@H](O)[C@H](C(=O)O)[O]2)[O][C@H]([C@H](O)CO)[C@@H]1O (stereo partly drawn) [stibogluconate] + CO[C@@H]1[C@H](N(C)C(=O)c2ccccc2)C[C@H]2O[C@]1(C)n1c3ccccc3c3c4c(c5c6ccccc6n2c5c31)C(=O)NC4 [Midostaurin] (first compound 2 µM, partner dose 0.08 µM) | 89.4
O=C(O)[C@@H]1[O][Sb](=[O])([O][Sb]2(=[O])[O][C@H]([C@H](O)CO)[C@H](O)[C@H](C(=O)O)[O]2)[O][C@H]([C@H](O)CO)[C@@H]1O (stereo partly drawn) [stibogluconate] + CC(=O)c1c(C)c2cnc(Nc3ccc(N4CCNCC4)cn3)nc2n(C2CCCC2)c1=O [palbociclib] (first compound 2 µM, partner dose 0.04 µM) | 70
O=C(O)[C@@H]1[O][Sb](=[O])([O][Sb]2(=[O])[O][C@H]([C@H](O)CO)[C@H](O)[C@H](C(=O)O)[O]2)[O][C@H]([C@H](O)CO)[C@@H]1O (stereo partly drawn) [stibogluconate] + COc1cc(Nc2ncc(F)c(Nc3ccc4c(n3)NC(=O)C(C)(C)O4)n2)cc(OC)c1OC [Tamatinib] (first compound 2 µM, partner dose 0.4 µM) | 74.8
O=C(Nc1cc(C(F)(F)F)cc(C(F)(F)F)c1)c1cc(Cl)ccc1O + CC1(C)CCC(c2ccc(Cl)cc2)=C(CN2CCN(c3ccc(C(=O)NS(=O)(=O)c4ccc(N[C@H](CCN5CCOCC5)CSc5ccccc5)c(S(=O)(=O)C(F)(F)F)c4)cc3)CC2)C1 [ABT263] (first compound 0.016 µM, partner dose 0.4 µM) | 76.4
O=C(O)[C@@H]1[O][Sb](=[O])([O][Sb]2(=[O])[O][C@H]([C@H](O)CO)[C@H](O)[C@H](C(=O)O)[O]2)[O][C@H]([C@H](O)CO)[C@@H]1O (stereo partly drawn) [stibogluconate] + C=CCn1c(=O)c2cnc(Nc3ccc(N4CCN(C)CC4)cc3)nc2n1-c1cccc(C(C)(C)O)n1 [MK1775] (first compound 2 µM, partner dose 0.02 µM) | 78.3
O=C(Nc1cc(C(F)(F)F)cc(C(F)(F)F)c1)c1cc(Cl)ccc1O + CN(c1ncccc1CNc1nc(Nc2ccc3c(c2)CC(=O)N3)ncc1C(F)(F)F)S(C)(=O)=O [PF562271] (first compound 0.016 µM, partner dose 0.08 µM) | 98
O=C(Nc1cc(C(F)(F)F)cc(C(F)(F)F)c1)c1cc(Cl)ccc1O + COc1ccc(C2=N[C@@H](c3ccc(Cl)cc3)[C@@H](c3ccc(Cl)cc3)N2C(=O)N2CCNC(=O)C2)c(OC(C)C)c1 [Nutlin-3] (first compound 0.016 µM, partner dose 0.1 µM) | 107
O=C(Nc1cc(C(F)(F)F)cc(C(F)(F)F)c1)c1cc(Cl)ccc1O + CN1CCN(c2ccc3nc(-c4c(N)c5c(F)cccc5[nH]c4=O)[nH]c3c2)CC1 [Dovitinib] (first compound 0.016 µM, partner dose 0.1 µM) | 93.4
Cc1cc(N2CCOCC2)cc2[nH]c(-c3c(NC[C@@H](O)c4cccc(Cl)c4)cc[nH]c3=O)nc12 + OCCn1cc(-c2cnc3nnn(Cc4ccc5ncccc5c4)c3n2)cn1 [PF04217903] (first compound 0.2 µM, partner dose 1 µM) | 77.7
O=C(O)[C@@H]1[O][Sb](=[O])([O][Sb]2(=[O])[O][C@H]([C@H](O)CO)[C@H](O)[C@H](C(=O)O)[O]2)[O][C@H]([C@H](O)CO)[C@@H]1O (stereo partly drawn) [stibogluconate] + COc1ccc(Cl)c(Nc2nc3ccccc3nc2NS(=O)(=O)c2cccc(NC(=O)C(C)(C)N)c2)c1 [XL147] (first compound 2 µM, partner dose 0.8 µM) | 90.3
O=C(O)c1ccc2c(c1)nc(Nc1cccc(Cl)c1)c1ccncc12 + Nc1ccn([C@@H]2O[C@H](CO)[C@@H](O)C2(F)F)c(=O)n1 [gemcitabine] (first compound 0.4 µM, partner dose 0.0004 µM) | 104
